In publication PMC3834829 one finds binding data, which are given here for ten substances.

Sequences of proteins named here, by UniProt entry; tags and fusion partners are left off. A change or cut given only in a name is not applied to a line headed by its entry. Residues count along the entry.
UniProt Q9QYE3: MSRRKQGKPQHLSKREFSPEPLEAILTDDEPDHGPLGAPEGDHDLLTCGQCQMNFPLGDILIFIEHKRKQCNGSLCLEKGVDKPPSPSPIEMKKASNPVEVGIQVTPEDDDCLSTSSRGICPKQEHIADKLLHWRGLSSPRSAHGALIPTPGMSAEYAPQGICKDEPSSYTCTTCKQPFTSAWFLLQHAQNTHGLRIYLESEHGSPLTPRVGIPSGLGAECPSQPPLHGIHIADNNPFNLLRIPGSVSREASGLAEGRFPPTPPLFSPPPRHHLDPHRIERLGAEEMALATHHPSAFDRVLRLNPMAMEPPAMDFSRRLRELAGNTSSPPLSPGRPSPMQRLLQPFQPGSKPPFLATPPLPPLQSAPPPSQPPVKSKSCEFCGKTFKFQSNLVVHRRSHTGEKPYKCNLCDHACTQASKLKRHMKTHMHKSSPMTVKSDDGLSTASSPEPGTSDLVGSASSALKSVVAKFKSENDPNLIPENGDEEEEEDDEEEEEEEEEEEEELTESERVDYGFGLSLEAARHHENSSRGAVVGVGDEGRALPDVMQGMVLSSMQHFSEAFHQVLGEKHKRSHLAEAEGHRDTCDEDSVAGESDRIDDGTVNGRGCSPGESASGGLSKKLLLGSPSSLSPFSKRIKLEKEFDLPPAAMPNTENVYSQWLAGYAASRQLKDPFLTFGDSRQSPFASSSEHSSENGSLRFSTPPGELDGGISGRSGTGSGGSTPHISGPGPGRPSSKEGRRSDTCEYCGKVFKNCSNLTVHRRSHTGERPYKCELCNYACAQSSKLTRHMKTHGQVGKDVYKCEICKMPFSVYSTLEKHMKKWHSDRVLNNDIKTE
UniProt Q9Y466: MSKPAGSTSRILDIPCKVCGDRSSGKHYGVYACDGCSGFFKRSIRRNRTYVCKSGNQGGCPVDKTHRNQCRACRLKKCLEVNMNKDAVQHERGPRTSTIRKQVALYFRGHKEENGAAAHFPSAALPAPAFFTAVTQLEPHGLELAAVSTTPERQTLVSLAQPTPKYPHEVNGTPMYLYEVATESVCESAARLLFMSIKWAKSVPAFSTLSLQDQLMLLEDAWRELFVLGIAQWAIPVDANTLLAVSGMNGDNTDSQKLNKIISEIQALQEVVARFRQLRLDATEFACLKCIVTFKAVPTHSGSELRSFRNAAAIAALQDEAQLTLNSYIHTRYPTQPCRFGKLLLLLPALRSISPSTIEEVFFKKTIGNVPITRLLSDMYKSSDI
GST-TLX-(100–385): residues 100-385 of Q9Y466
UniProt Q9Y5X4: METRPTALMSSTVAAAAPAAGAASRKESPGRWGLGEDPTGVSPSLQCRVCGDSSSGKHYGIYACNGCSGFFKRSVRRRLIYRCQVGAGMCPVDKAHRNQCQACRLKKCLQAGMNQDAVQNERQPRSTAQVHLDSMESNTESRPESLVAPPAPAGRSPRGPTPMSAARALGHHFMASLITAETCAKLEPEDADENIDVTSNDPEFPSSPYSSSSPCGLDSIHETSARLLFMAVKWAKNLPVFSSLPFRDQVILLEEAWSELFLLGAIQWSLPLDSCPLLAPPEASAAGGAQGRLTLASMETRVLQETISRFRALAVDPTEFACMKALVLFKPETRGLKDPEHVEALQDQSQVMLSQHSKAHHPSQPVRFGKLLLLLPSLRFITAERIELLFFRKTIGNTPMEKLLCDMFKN
GST-PNR-(89–410): residues 89-410 of Q9Y5X4
UniProt P10275, residues 626-919: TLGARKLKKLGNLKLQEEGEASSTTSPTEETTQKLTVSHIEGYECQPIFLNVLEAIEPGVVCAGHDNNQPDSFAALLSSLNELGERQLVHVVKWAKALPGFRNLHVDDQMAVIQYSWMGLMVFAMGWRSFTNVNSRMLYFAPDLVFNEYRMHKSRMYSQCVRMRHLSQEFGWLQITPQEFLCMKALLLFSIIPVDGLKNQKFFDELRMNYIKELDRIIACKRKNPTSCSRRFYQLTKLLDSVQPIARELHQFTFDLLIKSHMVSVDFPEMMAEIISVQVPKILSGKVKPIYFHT
UniProt P03372, residues 282-595: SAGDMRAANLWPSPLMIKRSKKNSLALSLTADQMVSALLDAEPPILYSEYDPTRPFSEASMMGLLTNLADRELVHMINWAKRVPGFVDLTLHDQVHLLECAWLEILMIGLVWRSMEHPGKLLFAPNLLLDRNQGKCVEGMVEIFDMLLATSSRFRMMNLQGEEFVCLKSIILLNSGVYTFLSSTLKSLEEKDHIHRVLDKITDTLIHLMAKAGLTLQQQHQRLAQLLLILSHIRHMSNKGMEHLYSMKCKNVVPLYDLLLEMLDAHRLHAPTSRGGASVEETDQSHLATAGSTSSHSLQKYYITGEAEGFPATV
UniProt P19793, residues 200-462: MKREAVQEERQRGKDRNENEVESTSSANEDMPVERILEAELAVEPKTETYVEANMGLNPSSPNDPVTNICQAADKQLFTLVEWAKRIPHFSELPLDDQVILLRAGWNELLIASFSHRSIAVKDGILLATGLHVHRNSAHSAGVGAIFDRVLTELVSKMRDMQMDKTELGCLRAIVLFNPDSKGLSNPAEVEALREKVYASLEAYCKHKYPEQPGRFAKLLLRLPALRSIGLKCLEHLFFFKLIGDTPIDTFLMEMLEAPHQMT
UniProt Q64104: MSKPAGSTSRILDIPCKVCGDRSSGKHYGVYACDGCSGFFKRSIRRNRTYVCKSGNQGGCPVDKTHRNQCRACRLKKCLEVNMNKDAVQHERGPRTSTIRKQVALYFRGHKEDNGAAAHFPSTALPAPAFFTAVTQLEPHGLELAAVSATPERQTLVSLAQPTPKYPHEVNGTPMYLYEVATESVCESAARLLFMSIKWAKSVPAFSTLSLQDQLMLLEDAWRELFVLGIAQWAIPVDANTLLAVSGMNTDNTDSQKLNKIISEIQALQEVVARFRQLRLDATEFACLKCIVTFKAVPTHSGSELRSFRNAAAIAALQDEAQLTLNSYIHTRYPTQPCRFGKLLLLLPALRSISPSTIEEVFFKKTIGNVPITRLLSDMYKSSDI

For assay [1], the target named is T1, LexA-BCL11A-(310–325) (UniProt Q9H165).
T1 sequence: PPAMDFSRRLRELAGN
The assay can be described thus: two-hybrid; S. cerevisiae L40; LexA DBD fusion with VP16 AAD-NR fusion; β-galactosidase activity in cell-free extracts; 10^-6 M cognate ligand added.

In assay [2] the target is T2, LexA-BCL11A-(651–670) (UniProt Q9H165).
T2 sequence: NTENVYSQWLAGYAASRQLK
Described as above.

Assay [3] deals with T1, LexA-BCL11A-(310–325). The assay can be described thus: two-hybrid; S. cerevisiae L40; LexA DBD fusion with VP16 AAD-NR fusion; β-galactosidase activity in cell-free extracts; vehicle only or no ligand.
Assay [4] has as its target T2, LexA-BCL11A-(651–670). The description is as above.
The target of a further assay is T3, LexA-BCL11A RID2 S657A (UniProt Q9H165).
T3 sequence: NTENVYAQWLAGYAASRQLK
Described as above.

In assay [5] the target is FLAG-BCL11A-XL (WT), HEK293 (UniProt Q9H165). The assay can be described thus: co-IP; HEK293 co-transfected; nuclear extracts in Triton X-100 lysis buffer; FLAG-tagged BCL11A-XL precipitated with anti-FLAG M2; Western blot.
Assay [6] has as its target FLAG-BCL11A-XL Y656A/W659A, HEK293 (UniProt Q9H165). The description is as above.
The target of assay [7] is endogenous BCL11A proteins, mouse cerebral cortex (mouse (endogenous in cerebral cortex)) (UniProt Q9QYE3). The assay can be described thus: co-IP; endogenous proteins, adult mouse cerebral cortex extract in Triton X-100 lysis buffer; BCL11A immunoprecipitated; Western blot.
The target of the next assay is GST-TLX-(100–385) (UniProt Q9Y466). The assay can be described thus: pull-down; GST fusion proteins on glutathione-Sepharose beads with 35S-labelled in vitro translated BCL11A-XL; NETN buffer (20 mM Tris pH 8.0, 100 mM NaCl, 1 mM EDTA, 0.5% NP-40); for GST-PPARγ with 1 µM roziglitazone or vehicle; only the target purified.
A further assay deals with T4, GST-COUP-TFII-(144–414) (UniProt P24468).
T4 sequence: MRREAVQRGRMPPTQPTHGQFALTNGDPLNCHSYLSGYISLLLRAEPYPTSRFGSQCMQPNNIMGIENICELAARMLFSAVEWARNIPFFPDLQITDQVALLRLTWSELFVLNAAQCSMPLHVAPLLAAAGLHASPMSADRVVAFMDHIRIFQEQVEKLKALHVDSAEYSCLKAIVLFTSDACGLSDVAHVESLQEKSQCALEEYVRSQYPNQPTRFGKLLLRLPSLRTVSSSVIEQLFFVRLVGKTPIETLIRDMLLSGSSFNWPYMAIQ
The assay is described as above.

In the next assay the target is GST-PNR-(89–410) (UniProt Q9Y5X4). Described as above.

No constants are given. Whether binding was seen depends on the method and setting. For part of these data: Binding seen in cells or lysates may run through a third protein. Some entries that bind do so weakly or less than the wild type. For part of these data: Sequences can lack the tags named with a protein.

On to “AAD-AR-LBD-(626–919) (from UniProt P10275 626-919) (domain or fragment)”, for which the binding result with LexA-BCL11A-(310–325) [1] and with LexA-BCL11A-(651–670) [2] was “no binding” in each case.

In the case of “AAD-ERα-LBD-(282–595) (from UniProt P03372 282-595) (domain or fragment)”, the binding result in the assay with LexA-BCL11A-(310–325) [1] and with LexA-BCL11A-(651–670) [2] was “no binding” throughout.

With “AAD-PNR-LBD-(131–410) (from UniProt Q9Y5X4 131-410) (domain or fragment)”, the binding entry with LexA-BCL11A-(310–325) [3] is given as “binds”; with LexA-BCL11A-(651–670) [4] it was “no binding”.

As to “AAD-RXRα-LBD-(200–462) (from UniProt P19793 200-462) (domain or fragment)”, the binding entry with LexA-BCL11A-(310–325) [1] and in the assay with LexA-BCL11A-(651–670) [2] was “no binding” in each case.

For the substance “AAD-TLX-LBD-(100–385) (from UniProt Q9Y466 100-385) (domain or fragment)”, the binding entry with LexA-BCL11A-(310–325) [3], with LexA-BCL11A-(651–670) [4] and with LexA-BCL11A RID2 S657A was “binds” in each case.

For “HA-PNR-(89–410), HEK293 (from UniProt Q9Y5X4 89-410) (domain or fragment)”, the binding result in assay [5] and in assay [6] was “binds” throughout.

Consider “HA-TLX, HEK293 (from UniProt Q9Y466 1-385)”, for which the binding entry in assay [5] is on record as “binds”.

“endogenous TLX, mouse cerebral cortex (from UniProt Q64104 1-385)”: the binding result in assay [7] is on record as “binds”.

With “in vitro translated 35S-labelled FLAG-BCL11A-XL L319A/Y656A/W659A (from UniProt Q9H165-1 1-835)”, the binding result in the assay with GST-TLX-(100–385), in the assay with GST-COUP-TFII-(144–414) and with GST-PNR-(89–410) was “no binding” in each case.

For the substance “in vitro translated 35S-labelled FLAG-BCL11A-XL wild type (from UniProt Q9H165-1 1-835)”, the binding result in the assay with GST-TLX-(100–385), in the assay with GST-COUP-TFII-(144–414) and in the assay with GST-PNR-(89–410) was “binds” throughout.
